# Data: PMC4336329 (PLoS ONE, 2015)
# Out of some 310,000 compounds screened, about 2,200 (0.71%) showed an effect of 50% or more. The effect is printed as a negative number. Some of the results follow.
# Target: human ether-à-go-go-related gene (hERG) potassium channel (human, UniProt Q12809)
# Assay: primary screen, population patch clamp on CHO cells stably expressing hERG
# Chain of human ether-à-go-go-related gene (hERG) potassium channel (Q12809 whole entry, looked up): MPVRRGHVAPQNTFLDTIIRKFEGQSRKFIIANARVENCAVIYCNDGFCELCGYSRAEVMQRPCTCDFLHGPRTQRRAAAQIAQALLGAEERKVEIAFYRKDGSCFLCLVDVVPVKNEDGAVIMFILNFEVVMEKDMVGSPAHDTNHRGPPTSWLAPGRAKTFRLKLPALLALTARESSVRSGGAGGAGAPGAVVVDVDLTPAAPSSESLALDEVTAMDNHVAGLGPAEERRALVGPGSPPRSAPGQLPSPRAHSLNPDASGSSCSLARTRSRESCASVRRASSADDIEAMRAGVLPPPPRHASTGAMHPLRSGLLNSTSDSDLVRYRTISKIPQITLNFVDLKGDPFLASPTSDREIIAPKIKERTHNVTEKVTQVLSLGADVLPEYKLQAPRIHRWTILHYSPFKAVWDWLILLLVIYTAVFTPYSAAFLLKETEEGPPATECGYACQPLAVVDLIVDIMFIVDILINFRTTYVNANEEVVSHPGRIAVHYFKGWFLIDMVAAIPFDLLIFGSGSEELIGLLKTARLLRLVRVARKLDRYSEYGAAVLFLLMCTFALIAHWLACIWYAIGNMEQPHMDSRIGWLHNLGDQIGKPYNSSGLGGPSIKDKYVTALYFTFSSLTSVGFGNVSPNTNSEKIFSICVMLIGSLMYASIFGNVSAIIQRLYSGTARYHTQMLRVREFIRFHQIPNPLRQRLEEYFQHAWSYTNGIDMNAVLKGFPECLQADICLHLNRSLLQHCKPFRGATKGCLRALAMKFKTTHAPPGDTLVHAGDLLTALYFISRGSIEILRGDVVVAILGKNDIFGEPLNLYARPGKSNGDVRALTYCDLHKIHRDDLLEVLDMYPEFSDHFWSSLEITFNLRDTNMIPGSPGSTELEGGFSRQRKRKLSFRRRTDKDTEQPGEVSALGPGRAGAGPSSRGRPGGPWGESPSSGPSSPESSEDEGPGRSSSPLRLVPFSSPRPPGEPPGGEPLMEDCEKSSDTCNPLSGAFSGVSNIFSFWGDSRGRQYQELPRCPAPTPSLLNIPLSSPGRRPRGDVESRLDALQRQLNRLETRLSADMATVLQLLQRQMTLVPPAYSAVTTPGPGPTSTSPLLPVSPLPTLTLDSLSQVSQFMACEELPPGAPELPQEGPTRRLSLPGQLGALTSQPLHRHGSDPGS
row,Compound,"hERG current change (%, negative = inhibition) at 1uM"
1,COc1ccc(NC(=O)c2sc3nc(N4CCCC4)c4c(c3c2N)CC(C)(C)OC4)c(OC)c1,12.4%
2,N#Cc1ncc(-c2ccc3c(c2)OCCOCCOCCOCCO3)nc1C#N,-63.6%
3,CCC(C)(C)n1nnnc1C(c1cccnc1)N1CCCc2ccccc21 (stereo not drawn),8.46%
4,COC(=O)c1cn(C(=O)c2ccc(Br)o2)c2ccccc12,7.21%
5,Cc1ccc[n+](CC(=O)Nc2ccc(Cl)c([N+](=O)[O-])c2)c1.[Cl-],10.3%
6,COc1ccc(-c2onc(C)c2-c2ccccc2)c(O)c1,20.3%
7,Cc1ccc(S(=O)(=O)N2CCOCC2)cc1NC(=O)CSc1nnc2cc(C)c3ccccc3n12,-44.2%
8,CN(CC(=O)NCCN1CCOCC1)S(=O)(=O)c1ccc(F)cc1,8.74%
9,CCOc1cc(/C=C2/C(=N)N3C(=NC2=O)SN=C3S(C)(=O)=O)ccc1OC(=O)c1ccco1,13.4%
10,CCCCn1c(N)c(N(CCOC)C(=O)C2CCN(C(=O)c3ccc(F)cc3)CC2)c(=O)[nH]c1=O,17.2%
11,Cc1c(NC(=O)c2cc3c(s2)-c2ccccc2OC3)cccc1[N+](=O)[O-],3.9%
12,CCCCCn1c(=S)[nH]c2cc(C(=O)N3CCN(C(=O)OCC)CC3)ccc2c1=O,10.3%
13,Cc1cn(CC(=O)c2ccccc2)c2ccccc12,15%
14,O=C(c1ccccc1)c1cnc(-c2ccccc2)s1,21.3%
15,CSc1cccc(NC(=O)Cn2cnc(S(=O)(=O)N3CCCC3)c2)c1,17.7%
16,O=C(C1CCN(S(=O)(=O)c2cccc3cccnc23)CC1)N1CCN(c2ccc(Cl)cc2)CC1,5.45%
17,Cc1ccc(N(CC(=O)NC2CCCC2)C(=O)CCC(=O)Nc2ccccn2)cc1,3.06%
18,COc1ccc(NC(=O)c2cc3ccccc3o/c2=N\NS(=O)(=O)c2ccc(C)cc2)cc1,-7.26%
19,Cl.O=C(CNCc1ccco1)Nc1ccccc1-n1cccc1,13.8%
20,CC1CCCCN1C(=O)c1cc(-c2ccc3c(c2)OCO3)on1 (stereo not drawn),4.7%
21,COc1cc(OC)cc(C(=O)N[C@H](C(=O)OCC(=O)Nc2cccnc2Cl)C(C)C)c1,8.87%
22,Cn1ccsc1=NC(=O)c1ccccc1F,17.3%
23,CC1Cc2ccccc2N1S(=O)(=O)c1cccc(C(=O)N2Cc3ccccc3CC2C(N)=O)c1 (stereo not drawn),3.32%
24,COCCNC(=O)CN1C(=O)NC2(CCOc3ccccc32)C1=O (stereo not drawn),15.7%
25,Cc1ccccc1OCC(=O)Nc1nnc(S(=O)(=O)N2CCCC2)s1,23.6%
26,O=C(c1ccc2c(c1)OCCO2)N1CCCCC1,6.39%
27,COc1ccccc1C(=O)Nc1cccc(C(=O)N2CCOCC2)c1,31.3%

row,Compound,"hERG current change (%, negative = inhibition) at 1uM"
1,Cc1ccc(CN2CCN(Cc3cn[nH]c3-c3ccccc3)CC2CCO)o1 (stereo not drawn),12.2%
2,COc1ccccc1OCc1cc(C(=O)NCc2ccc(N3CCCC3=O)cc2)no1,20.3%
3,NCCCC[C@H]1CN=C(N)N1CCc1cccc2ccccc12,9.97%
4,O=C(Nc1cc(Oc2ccccc2)cc([N+](=O)[O-])c1)C12CC3CC(C1)CC(n1cnc(Cl)n1)(C3)C2,16.5%
5,COc1ccc(CCN2CC(C(=O)NCCc3ccc(C(F)(F)F)cc3)CCC2=O)cc1 (stereo not drawn),-2.34%
6,Cc1ccccc1NC(=S)N(Cc1ccco1)C(C)c1ccccn1 (stereo not drawn),10.9%
7,CC(=O)Nc1ccc2nc(-c3ccccc3)cn2c1,15.1%
8,NC(=O)c1ccc(-c2nnc(Nc3ccc(S(N)(=O)=O)cc3)c3ccccc23)cc1,20.6%
9,Fc1ccc(-c2csc3ncnc(Nc4ccc(N5CCOCC5)cc4)c23)cc1,16.8%
10,Cc1nc(-c2ccccc2OC(F)(F)F)[nH]c(=O)c1Cl,6.89%
11,CCO[C@H]1OC(C(=O)N2CCN(Cc3ccc4c(c3)OCO4)CC2)=C[C@@H](C)[C@@H]1CCCO,11.1%
12,CC(OC(=O)Cc1cccc(C(F)(F)F)c1)C(=O)Nc1ccc(Cl)cn1 (stereo not drawn),6.82%
13,COc1ccc(C(=O)NC(=S)Nc2ccc3oc(=O)ccc3c2)cc1,7.97%
14,Cc1noc(C)c1CSc1nnc(-c2c[nH]c3ccccc23)n1-c1ccc(Cl)cc1,12.4%
15,C=CCn1c(C)cc(C(=O)COc2ccc(C)nc2[N+](=O)[O-])c1C,7.36%
16,CCN(CC)CCNC(=O)CS(=O)Cc1nc(-c2ccc(C)cc2)oc1C (stereo not drawn),13.7%
17,CCSc1sccc1C1C(C#N)=C(N)N(c2cccnc2)C2=C1C(=O)CC(C)(C)C2 (stereo not drawn),-21.3%
18,O=S(=O)(NCCCCCNS(=O)(=O)c1c(F)cccc1F)c1ccc2c(c1)OCCO2,12.9%
19,COc1ccc(C(=O)/C=C(\N)C(F)(F)F)c(O)c1,-0.193%
20,Cc1ccc(C)c(NC(=O)CN(C)C(=O)c2ccc(-c3cccc(C(F)(F)F)c3)o2)c1,13.3%
21,Cc1nc(/C(N)=N/OC(=O)c2c(-c3ccccc3Cl)noc2C)cs1,9.06%
22,CN(C)CC1CCCCC1OC(=O)/C=C/c1ccc(Cl)cc1Cl.Cl (stereo not drawn),2.15%
23,CCOC(=O)CC(=O)CSc1nc2ccc(C)cc2cc1C#N,2.16%
24,CCOc1ccc(N(C)c2ccc(/C=C3/SC(=S)NC3=O)cc2)cc1,9.04%
25,COc1ccc(O)c(/C=N/c2sc(C)c(C)c2C#N)c1,10.4%
26,On1c(-c2ccccc2)nc2ncccc21,13.4%
27,CC(C)C[C@@H](COc1ccccc1)N1CCN(CCc2ccccc2)CCC1=O,-61.7%
